According to the RNAGym collection of RNA variant scans (doi:10.1093/nar/gkz1192):
Read counts are not given, so values of variants with three or more changes are uncertain.

B1: CPEB3 Ribozyme (parent)
chain: UAACAGGGGGCCACAGCAGAAGCGUUCACGUCGCAGCCCCUGUCAGAUUCUGGUGAAUCUGCGAAUUCUGCUGUAUAUCUC

Variants of: B1
Assay: self-cleavage, relative activity (ratio to wild type); higher = more cleavage; in vitro, sequencing
Procedure, shortened: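 After error-prone PCR and barcoding, CPEB3 ribozyme mutant libraries were transcribed with T7 RNA polymerase at 37°C for 5 hours, then given 15 min with DNase I before an EDTA stop, and they cleaved during both steps. Reverse transcription with template switching preceded Illumina sequencing. Relative activity divides a variant's cleaved/total read fraction by the unmutated ribozyme's. At least 5 reads were required per variant, and three batches were averaged.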
In the case of UAACAGGGAGCCACAGCGGAAGCGUUCACGUCGCAGCCCCAGUCAGAUUCCGGCGAAUCUGCGAAUUCUGCUGUAUACCUC [G9A A18G U41A U51C U54C U78C], the self-cleavage is reported as 0.06. Variant UAACAGGGAGCCACAGCUGAAGCGUUCACGUCGCAGCCCCUGUCAGAUUCUGGUGUAUCUGUGAAUUCUGCUGUAUAUCUC [G9A A18U A56U C62U] has a self-cleavage of 0.06. In the case of UAACAGGGAGCCACAGCUGAAGCGUUCAUGUCGCAGCCCCUGUCGGAUUCUGGUGAAUCUGCGAAUUCCGCUGUAUAUCUC [G9A A18U C29U A45G U69C], the self-cleavage is reported as 0.12. UAACAGGGAGCCACAGCUGAAUCGUUCACGUCGCAGCCCCUGUCAGACUCUGGUGAAUCUGCGAACUCUGCUGUAUAUCUC [G9A A18U G22U U48C U66C] gave a self-cleavage of 0.07. UAACAGGGAGCCACAGCUGAAGCGUCCACGUCGCAGCCCCUGUCAGAUUCUGGUGAGUCUGCGAAUUCUGCUGUAUAUCUC [G9A A18U U26C A57G] gave a self-cleavage of 0.11. UAACAGGGAGCCACAGCUGAAGCGUUCACGUCGCAGCCCCUGUCAGAUUCUGGUGAAUCUGCGAAUUCCGAUGUAUAUCCC [G9A A18U U69C C71A U80C] gave a self-cleavage of 0.03. Work on UAACAGGGAGCCACAGCAGGAGCGAUCACGUCGCAGCACCUGUCAGAUUCUGGUGAAUCUGAGAAUCCUGCUGUAUAUCUC [G9A A20G U25A C38A C62A U67C] yielded a self-cleavage of 0.04. UAACAGGGAGCCACAGCAGGAGCGUUCACGUCGCAGCCCCUGUCAGAUUCUGGUGAACCUGCGAAUUCUGCUGUAUAUCUC [G9A A20G U58C] gave a self-cleavage of 0.09. UAACAGGGAGCCACAGCAGUGGCGUCCACCUCGCAGCCCCUGUCAGAUUCUGGUGAAUCUGCGAAUUCUGCUGUAUAUCCC [G9A A20U A21G U26C G30C U80C] showed a self-cleavage of 0.05. Work on UAACAGGGAGCCACAGCAGUAGCGUUCACGUCGCAGCACCUGUCAGAUUCUGGUGAAUCUGCGAAUUCUGCUGUAUAUCUU [G9A A20U C38A C81U] yielded a self-cleavage of 0.05. For UAACAGGGAGCCACAGCAGUAGCGUACACGUCGCAGCCCCUGUCAGAUUCUGGUGAAUCUGCGAAUUCUGCUGUAUAUCUC [G9A A20U U26A], the self-cleavage was 0.11. UAACAGGGAGCCACAGCAGAGGCGUUCACGUCGCAGCCCCUGUCAGUUUCUGGUGAAUCAGCGAAUUCUGCUGUAUAUCUC [G9A A21G A47U U60A] gave a self-cleavage of 0.05. UAACAGGGAGCCACAGCAGAGGCGUUCACGUCGCAGCCCCUGUCAGAUUCUGUUGACUCUGCGAAUUCUGCCGUAUAUCUC [G9A A21G G53U A57C U72C] showed a self-cleavage of 0.09. With UAACAGGGAGCCACAGCAGAGGCGUCCACGUCGCAGCCCCUGUCAGAUUCUGGAGAAUCUGCGAAUUCUGCUGUAUAUCUC [G9A A21G U26C U54A] the self-cleavage was 0.08. Variant UAACAGGGAGCCACAGCAGAAGCGUUCCCGUCGCAGCCCCUGUCAGAUCCAGGUGAAUCUGCGAAUUCUGCUGUAUAUCUC [G9A A28C U49C U51A] has a self-cleavage of 0.04. UAACAGGGAGCCACAGCAGAAGCGUUCGCGUCGCAGCCCCUGUCAGAUUCUGGUGAAUCUGCGGAUACUGCUGUGUAUCUC [G9A A28G A64G U67A A75G] showed a self-cleavage of 0.03. In the case of UAACAGGGAGCCACAGCAGAAGCGUUCUCGUCGCAGCCCCCGUCAGAUUCGGGCGAAUCUGCGAAUUCUGCUGUAUAUCUC [G9A A28U U41C U51G U54C], the self-cleavage is reported as 0.14. In the case of UAACAGGGAGCCACAGCAGAAGCGUUCUCGUCGCAGCCCCCGUCAGAUUCUGGUGAAUCUGCGAAUGCUGCCGUAUAUCUC [G9A A28U U41C U67G U72C], the self-cleavage is reported as 0.04. In the case of UAACAGGGAGCCACAGCAGAAGCGUUCACGUCGCGGCCCCCGUCAGAUUCUGGUGAAUCUGCGAUUUCUGCUGUAUGUCUC [G9A A35G U41C A65U A77G], the self-cleavage is reported as 0.14. In the case of UAACAGGGAGCCACAGCAGAAGCGUUCACGUCGCGGCCCCCGUCAGAUUCUGGUGAACCUGCGAAUUCUGCUGUAUAUCCC [G9A A35G U41C U58C U80C], the self-cleavage is reported as 0.2. Variant UAACAGGGAGCCACAGCAGAAGCGUUCACGUCGCGGCCCCCGUCAGAUUCUGGUGAAUCUGCGAACUCUGCUGUAUAUCUC [G9A A35G U41C U66C] has a self-cleavage of 0.24. UAACAGGGAGCCACAGCAGAAGCGUUCACGUCGCGGCCCCUGUCAGAUACUGGUGAAUCUGCGAAUUCUGCUGUAUAUCUC [G9A A35G U49A] gave a self-cleavage of 0.4. For UAACAGGGAGCCACAGCAGAAGCGUUCACGUCGCGGCCCCUGUCAGAUUCUGGUGAAUCUGCGAAUUCUGCUGUAAGUCUC [G9A A35G U76A A77G], the self-cleavage was 0.76. UAACAGGGAGCCACAGCAGAAGCGUUCACGUCGCUGCCCCUGUCCGAUUCUGGUGAAUCCGCGAAUUCUGCUGUAUAUCUC [G9A A35U A45C U60C] gave a self-cleavage of 0.11. UAACAGGGAGCCACAGCAGAAGCGUUCACGUCGCAGCCCCUGUCGGACUCCGGUGAAUCUGCGAAUUCUGCUGUAUAUCUC [G9A A45G U48C U51C] gave a self-cleavage of 0.32. Variant UAACAGGGAGCCACAGCAGAAGCGUUCACGUCGCAGCCCCUGUCGGAUCCUGGAGAAUCUGCGAAUUCUGCUGUAUAUCUC [G9A A45G U49C U54A] has a self-cleavage of 0.43. UAACAGGGAGCCACAGCAGAAGCGUUCACGUCGCAGCCCCUGUCGGAUUCUGGCGAAUCUGCGGUUUCUGCUGUAUAUCUC [G9A A45G U54C A64G A65U] showed a self-cleavage of 0.14. UAACAGGGAGCCACAGCAGAAGCGUUCACGUCGCAGCCCCUGUCGGAUUCUGGUGAACCUGCGAAUUCUACUGUAUAUCUC [G9A A45G U58C G70A] showed a self-cleavage of 0.14. In the case of UAACAGGGAGCCACAGCAGAAGCGUUCACGUCGCAGCCCCUGUCUGAUUCUGGUGAAUCUGCGAAUGCUGCUGUAUAACUC [G9A A45U U67G U78A], the self-cleavage is reported as 0.11. For UAACAGGGAGCCACAGCAGAAGCGUUCACGUCGCAGCCCCUGUCUGAUUCUGGUGAAUCUGCGAAUUCUGCUGCAUAUCCC [G9A A45U U74C U80C], the self-cleavage was 0.07. Variant UAACAGGGAGCCACAGCAGAAGCGUUCACGUCGCAGCCCCUGUCAGAUUCUGGUGGGUCUGCGGAUUCUGCUGUAUAUCUC [G9A A56G A57G A64G] has a self-cleavage of 0.13. Variant UAACAGGGAGCCACAGCAGAAGCGUUCACGUCGCAGCCCCUGUCAGAUUCUGGUGAUUAUGCGAAUUCUGCUGUAUAUCUC [G9A A57U C59A] has a self-cleavage of 0.19. UAACAGGGAGACACAGCAGAAGCGUUCACGUCGCAGCCCCUGUCAGAUUCUGGUGAUUCUGCGAAUUCUGCUGUAUAUCUC [G9A C11A A57U] showed a self-cleavage of 0.09. In the case of UAACAGGGAGGCGCAGCAGAGGCGUACACGUCGCAGCCCCUGUCAGAUUCUGGUGAGCCUGCGAAUUCUGCUGUAUAUCUC [G9A C11G A13G A21G U26A A57G U58C], the self-cleavage is reported as 0.06.
